Data on 41 compounds can be found in the supplement of paper PMC4723716.

± gives the uncertainty stated by the source. Over roughly 9,900 compounds, “viability index relative to DMSO control” has its median near 1; the lowest 2% begin near 0.85. Some of the results follow.

The test system of the assay is Plasmodium falciparum NF54 stage V gametocytes. Put plainly: viability index relative to DMSO control (fraction); higher = less gametocyte killing. The following applies: 2.5 µM, library set: Broad Institute DOS, incubation time: 72 h. The method in brief: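 Stage V gametocytes of P. falciparum NF54 were held in serum-free screening medium at 0.75% gametocytemia and 1.25% hematocrit, 10 µl per well of a 1,536-well plate, and exposed to compound at 2.5 µM for 72 hr at 37°C under low oxygen. A 3 µl mix of 2.5 µM MitoTracker Red CMXRos with 0.13% saponin was then added for one to two hours, after which one field per well was imaged and red particles of 20–70 µm2 were counted. The viability index equals this count divided by the plate mean from wells given solvent alone.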
`COCC#Cc1ccc2c(c1)O[C@H](CN(C)C(=O)C1CCOCC1)[C@H](C)CN([C@H](C)CO)S2(=O)=O`: the viability index was determined as 1.06 ± 0.035.
`C[C@H]1CCCCO[C@@H](CN(C)C(=O)Nc2ccc(C(F)(F)F)cc2)[C@@H](C)CN([C@@H](C)CO)C(=O)c2cc(NS(=O)(=O)c3cn(C)cn3)ccc2O1`: the viability index came to 1.11 ± 0.042.
With `CCS(=O)(=O)N1CCCCN2[C@H](C1)[C@@H](c1ccc(C#Cc3ccccn3)cc1)[C@@H]2CO`, the viability index is 0.954 ± 0.026.
Regarding `Cc1noc(C)c1S(=O)(=O)Nc1cccc2c1O[C@H](CN(C)Cc1ccc(C(F)(F)F)cc1)[C@H](C)CN([C@H](C)CO)C2=O`, the viability index came to 1.04 ± 0.023.
`C[C@H](CO)N1C[C@H](C)[C@@H](CN(C)C(=O)NC2CCCCC2)OCc2ccccc2-c2c(n(C)c3ccccc23)C1=O`: the viability index was 0.967 ± 0.086.
The same measure for `CO[C@H]1CN(C)C(=O)c2cc(NS(=O)(=O)CC(F)(F)F)ccc2OC[C@H](C)NC[C@@H]1C`: 1.03 ± 0.046; for `C[C@@H]1CCCCO[C@H](CN(C)C(=O)Nc2ccc(C(F)(F)F)cc2)[C@@H](C)CN([C@H](C)CO)C(=O)c2cc(NS(=O)(=O)c3cn(C)cn3)ccc2O1`: 1.053 ± 0.004; for `C[C@H](CO)N1C[C@H](C)[C@H](CN(C)C(=O)Cc2ccccc2)OCCCC[C@H](C)Oc2ccc(NS(C)(=O)=O)cc2C1=O`: 1.05 ± 0.042.
Then `C[C@H]1CCCCO[C@H](CN(C)Cc2ccc3c(c2)OCO3)[C@@H](C)CN([C@@H](C)CO)C(=O)c2cc(NS(=O)(=O)c3cn(C)cn3)ccc2O1`, with 1.029 ± 0.0079; and `C[C@@H]1CCCCO[C@H](CN(C)CC2CCCCC2)[C@H](C)CN([C@H](C)CO)C(=O)c2cc(NS(C)(=O)=O)ccc2O1`, with 1.1075 ± 0.00055.
For `O=C(C[C@@H]1CC[C@@H]2[C@H](COC[C@H](O)CN2Cc2cc(F)cc(F)c2)O1)Nc1nccs1`, the viability index turned out to be 0.919 ± 0.096.
Then `C/C=C/c1ccc([C@H]2[C@@H](CO)N(C(=O)CC)[C@H]2CN(C)Cc2cncnc2)cc1`, with 0.9998 ± 0.0083; and `COCC(=O)N1C[C@@]2(C1)CN(Cc1cccc(F)c1)[C@H](CO)c1c2c2ccc(OC)cc2n1C`, with 1.1273 ± 0.00085; and `C[C@H]1CN([C@@H](C)CO)C(=O)c2ccccc2-c2ccccc2CO[C@H]1CN(C)S(=O)(=O)c1ccc([N+](=O)[O-])cc1`, with 0.969 ± 0.086.
Compound `CN(C)C(=O)C[C@H]1CC[C@H]2[C@@H](COC[C@H](O)CN2C(=O)C2CCOCC2)O1` registered a viability index of 1.08 ± 0.043.
The same measure for `C[C@@H]1CCCCO[C@H](CN(C)C(=O)c2ccncc2)[C@@H](C)CN([C@H](C)CO)C(=O)c2cc(NC(=O)CCC(F)(F)F)ccc2O1`: 1.11 ± 0.097; for `Cc1noc(C)c1NC(=O)Nc1ccc2c(c1)C(=O)N([C@H](C)CO)C[C@H](C)[C@@H](CN(C)S(=O)(=O)c1cccs1)OCCCC[C@@H](C)O2`: 1.04 ± 0.051.
Compound `O=C(c1cnccn1)N1CC(=O)N2[C@H](CO)[C@@H](c3ccc(-c4cccc(F)c4)cc3)[C@H]2C1` yielded a viability index of 0.966 ± 0.05.
The compound `CO[C@H]1CN(C)C(=O)c2cc(NC(=O)c3ccc(F)cc3)ccc2OC[C@H](C)N(C(=O)CC2CC2)C[C@H]1C` yielded a viability index of 1.14 ± 0.066.
Compound `C[C@@H]1CCCCO[C@H](CN(C)Cc2ccc(C(F)(F)F)cc2)[C@@H](C)CN([C@H](C)CO)C(=O)c2cc(NC(=O)Nc3cccc4ccccc34)ccc2O1` registered a viability index of 1.1 ± 0.099.
For `COc1ccc(C#Cc2ccc3c(c2)[C@@H]2[C@@H](CCN2S(=O)(=O)c2ccccc2C)[C@H](CO)N3C)cc1`, the viability index worked out at 1.08 ± 0.013.
The compound `CN1C(=O)c2cc(NC(=O)Cc3cccs3)ccc2OC[C@H]2O[C@H](CC(=O)NCC3CCCCC3)CC[C@H]21` had a viability index of 1.191 ± 0.0061.
`C[C@H]1CN([C@@H](C)CO)C(=O)c2cc(-c3cccc(C#N)c3)cnc2O[C@H]1CN(C)C(=O)C1CCOCC1` gave a viability index of 0.988 ± 0.011.
For `COc1ccc(S(=O)(=O)Nc2ccc3c(c2)C(=O)N([C@@H](C)CO)C[C@@H](C)[C@@H](CN(C)C(=O)Nc2c(C)noc2C)OCCCC[C@H](C)O3)cc1`, the viability index is 1.05 ± 0.077.
Regarding `C[C@@H]1CCCCO[C@@H](CN(C)Cc2ccc3c(c2)OCO3)[C@H](C)CN([C@@H](C)CO)C(=O)c2cc(NS(=O)(=O)c3cn(C)cn3)ccc2O1`, the viability index was 1.053 ± 0.0087.
`CCC(=O)N1[C@@H](C#N)[C@@H](c2ccccc2-c2ccccc2)[C@@H]1CO` registered a viability index of 1.04 ± 0.058.
`CC(C)CC#Cc1ccc([C@H]2[C@@H](CO)N3C(=O)CN(C(=O)Nc4cc(F)ccc4F)C[C@@H]23)cc1`: the viability index came out at 1.01 ± 0.016.
Take `N#C[C@H]1[C@H](c2ccccc2C2=CCCC2)[C@@H](CO)N1C(=O)Cc1ccncc1`: the viability index came out at 1.03 ± 0.072.
In turn, `O=C(C1CCOCC1)N1CC(=O)N2[C@H](CO)[C@H](c3ccc(C#CC4CCCCC4)cc3)[C@H]2C1` gave a viability index of 1.09 ± 0.052.
Then `COc1ccc2c3c([C@@H](CO)N(CC4CC4)C[C@]33CCN(CC3)C(=O)c3cccc(F)c3)n(C)c2c1`, with 1.02 ± 0.16.
The same measure for `COCCNC(=O)C[C@H]1CC[C@@H]2[C@H](COC[C@H](O)CN2C(=O)c2cc(Cl)cc(Cl)c2)O1`: 0.981 ± 0.099; for `COCC(=O)N1C[C@@H](C)[C@@H](OC)CN(C)C(=O)c2ccc(NC(=O)Nc3cccc(F)c3)cc2OC[C@H]1C`: 0.976 ± 0.11; for `O=C(C[C@H]1CC[C@@H]2[C@H](COC[C@@H](O)CN2Cc2cc(F)ccc2F)O1)NCc1ccc(Oc2ccccc2)cc1`: 1.1 ± 0.024.
Then `O=S(=O)(c1ccccc1)N1CC2(C1)[C@@H](c1ccccc1)[C@@H](CO)N2CC1CCOCC1`, with 1.13 ± 0.065.
As to `C[C@@H]1CN([C@@H](C)CO)C(=O)CCCn2nncc2CO[C@H]1CN(C)S(=O)(=O)c1ccc2c(c1)OCCCO2`, the viability index was determined as 0.9817 ± 0.0089.
Compound `O=C(C[C@@H]1CC[C@@H]2[C@H](COC[C@@H](O)CN2S(=O)(=O)c2ccc(F)cc2)O1)NCCN1CCCCC1` yielded a viability index of 1.06 ± 0.017.
`C[C@H]1CCCCO[C@H](CN(C)C(=O)CCCN(C)C)[C@@H](C)CN([C@@H](C)CO)C(=O)c2cc(NC(=O)Nc3ccc4c(c3)OCO4)ccc2O1`: the viability index was 1.12 ± 0.12.
Compound `Cc1noc(C)c1NC(=O)Nc1ccc2c(c1)CC(=O)N([C@H](C)CO)C[C@@H](C)[C@@H](CN(C)Cc1ccc(C(F)(F)F)cc1)O2` came in with a viability index of 1.02 ± 0.012.
Then `O=C(C[C@H]1CC[C@H]2NC[C@H](O)COC[C@@H]2O1)Nc1nccs1`, with 1.048 ± 0.0082.
Regarding `C[C@@H]1CN([C@H](C)CO)C(=O)c2cccc(NS(=O)(=O)c3ccc(F)cc3)c2O[C@@H]1CN(C)Cc1ccc(Cl)c(Cl)c1`, the viability index was 0.94 ± 0.078.
Regarding `CN1C(=O)c2cc(NC(=O)c3cccc(F)c3)ccc2OC[C@H]2O[C@H](CC(=O)NCc3ccccc3Cl)CC[C@H]21`, the viability index came out at 1.09 ± 0.091.
